Assay results reported in PubChem BioAssay (NCATS).
The list shows a part of the results. Shown are side measurements of this screen, not its main read-out; they come without a call. Compounds called inactive in the main read-out are mostly missing here. Words in brackets tell the shape of the fitted curve; partial curves, single points and poor fits give uncertain potencies.

Experiment: Cell-based coincidence reporter assay to measure PMP22 gene transcription in S16 Pmp22-F2sN cells - Confirmatory screen (AID 1508646)
Settings: S16 Schwann cells Pmp22-F2sN, dual luciferase, 24 h
In short: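 S16 Schwann cells carrying a bioluminescent reporter in the Pmp22 3' UTR (Pmp22-F2sN) were treated with compounds for 24 h at 37C, then lysed; FLuc and then NLuc luminescence were read sequentially with a dual-luciferase kit on a CCD imager.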

[1] = measured here: FLuc reporter channel
[2] = measured here: NLuc reporter channel
Tags describe the fitted curve by direction and shape.

| SMILES | AC50 [1] | AC50 [2] |
| --- | --- | --- |
| Cc1ccc(NC(=O)Cn2c(=O)n(-c3ccc(C)cc3)c(=O)c3ccc(C(=O)NCc4ccccc4Cl)cc32)cc1 | 4.85 µM [falling, full curve] | 5.44 µM [falling, full curve] |
| CCOc1ccc(Nc2nc3c(S(=O)(=O)c4ccc(CC)cc4)nnn3c3ccc(Cl)cc23)cc1 | 13.7 µM [falling, partial curve, poor fit] | 21.7 µM [falling, partial curve] |
| CCCC1=Nc2cc(C(=O)NC3CCCCC3)ccc2Sc2ccc(C)cc21 | 1.93 µM [falling, full curve] | 3.85 µM [falling, full curve] |
| COc1ccc(C)cc1NS(=O)(=O)c1ccc(-c2cnc(C3CC3)o2)cc1 | 1.22 µM [falling, full curve, poor fit] | 6.11 µM [falling, partial curve] |
| Cc1c(C(=O)Nc2ccccc2Br)oc2ccc(S(=O)(=O)N3CCCCC3)cc12 | 19.3 µM [falling, partial curve, poor fit] | 17.2 µM [falling, partial curve] |
| CCOCCCNC(=O)c1ccc(-n2c(-c3ccccc3)cc3c2CCC(C)C3)cc1 (centres undefined) | 15.3 µM [falling, partial curve] | 19.3 µM [falling, partial curve, poor fit] |
| Cc1c(Cl)cccc1Nc1nn2c(=O)c3ccc(C(=O)NCCc4ccccc4)cc3nc2s1 | 13.7 µM [falling, full curve] | 15.3 µM [falling, partial curve] |
